In the supplement of paper PMC3334620:
Over roughly 33,000 sequences, “E-score (-0.5 to 0.5)” has its median near -0.012; the highest 2% begin near 0.27. This is one part of the list.

The sequences below were run against T1, Vhr1 (UniProt P40522) (assay: PBM E-score (8-mer binding enrichment) (E-score (-0.5 to 0.5)); higher = stronger / more preferred TF binding; most listed sequences are background and not binding sites). Conditions: protein concentration: 200 nM; construct: GST-full length.
T1 sequence: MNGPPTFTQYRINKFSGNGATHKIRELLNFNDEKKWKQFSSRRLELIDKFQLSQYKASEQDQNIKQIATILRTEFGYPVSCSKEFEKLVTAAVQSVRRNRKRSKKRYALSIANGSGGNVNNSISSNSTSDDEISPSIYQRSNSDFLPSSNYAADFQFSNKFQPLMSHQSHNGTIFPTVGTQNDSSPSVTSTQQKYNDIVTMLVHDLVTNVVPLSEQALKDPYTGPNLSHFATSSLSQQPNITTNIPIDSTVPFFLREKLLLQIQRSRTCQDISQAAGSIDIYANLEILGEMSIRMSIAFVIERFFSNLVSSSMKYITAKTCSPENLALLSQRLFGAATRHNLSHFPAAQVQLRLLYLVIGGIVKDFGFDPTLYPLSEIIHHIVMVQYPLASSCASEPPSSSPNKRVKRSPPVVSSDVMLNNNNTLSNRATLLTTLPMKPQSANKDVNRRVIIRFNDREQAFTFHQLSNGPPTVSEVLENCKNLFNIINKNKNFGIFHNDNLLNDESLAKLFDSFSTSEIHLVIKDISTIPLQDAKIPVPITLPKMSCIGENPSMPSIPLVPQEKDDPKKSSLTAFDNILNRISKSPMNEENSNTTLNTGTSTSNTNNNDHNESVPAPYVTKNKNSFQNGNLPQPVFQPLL
Summary of the method: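 Masliner-normalised scans of fluorescent anti-GST signal were the basis for scoring. That signal came from GST-tagged yeast transcription factors applied at about 100-200 nM to double-stranded universal all-10-mer Agilent arrays on fresh or once-stripped slides. Each ungapped eight-base word, pooled with its reverse complement, received an E-score from the Universal PBM Analysis Suite.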

Row | Sequence | PBM E-score
1 | AGCGCCCG | -0.0232
2 | ACACCGTC | -0.112
3 | CTAGTAGA | 0.0512
4 | CACGGCCC | -0.0712
5 | CTTGGGAA | -0.129
6 | ACCCAACG | 0.134
7 | ATCCATAC | 0.0581
8 | GGGAGTAC | 0.135
9 | ATGAAATA | -0.147
10 | GGGTAGAA | -0.131
11 | TGAACTCA | 0.031
12 | GCCCTGAA | -0.095
13 | AATCGCTA | -0.057
14 | CCTAAAGC | -0.278
15 | AAACTCCC | -0.26
16 | AAGATTAG | 0.0572
17 | CTTCAACC | -0.15
18 | GCAGGCCC | -0.199
19 | ATATGGAC | 0.117
20 | CCCATTCC | -0.0358
21 | ATCTCGCG | 0.0902
22 | GAGCACAC | 0.0763
23 | CTTCCAAG | -0.128
24 | GTTGCATA | 0.0983
25 | GATCCCCA | -0.107

Row | Sequence | PBM E-score
26 | CGAATCTA | -0.172
27 | TGGCAGAA | -0.025
28 | CCCTGTTC | -0.217
29 | CAACTGGG | -0.182
30 | AACATAAG | 0.138
31 | CACTCAGG | 0.117
32 | AACCCACC | 0.313
33 | GACACCGA | 0.0755
34 | AGCAGCTA | -0.118
35 | CCAATCGA | 0.00657
36 | GATACTTA | -0.187
37 | AGTCTCAG | 0.041
38 | ATCTACTA | 0.142
39 | AAGCCATG | -0.0516
40 | ATGTTAAC | 0.16
41 | ACTGTTTA | -0.0395
42 | CGTAAATA | -0.129
43 | ATTTTCCG | -0.16
44 | ATTCGTTA | 0.114
45 | AATCTTGA | -0.178
46 | CGGACTGC | 0.00522
47 | AATGCATG | 0.0921
48 | ATTGAGCG | 0.00733
49 | GTCGATCA | -0.029
50 | GGTTTCAA | -0.0163

Row | Sequence | PBM E-score
51 | GCCCGGTA | -0.0844
52 | ACTTTCTC | -0.0948
53 | CGCCCGCA | 0.209
54 | CACGCTAA | -0.144
55 | AGTGCCTG | -0.0085
56 | AGCATGCC | -0.0938
57 | GGAAGTCA | 0.282
58 | GGGGTCAA | -0.00112
59 | AAACGAGA | -0.0248
60 | AATGCTTA | -0.143
61 | GCTGCCCC | -0.196
62 | AGGCATGG | 0.0696
63 | ACCCATAA | 0.231
64 | CAGTTAAC | -0.0669
65 | GCCCCCTA | -0.347
66 | AGATCGAG | -0.178
67 | CCTGCTTA | -0.00839
68 | CTGCTGTA | -0.104
69 | GAGATGTA | 0.0797
70 | GAAGAAGA | -0.115
71 | AAACTGCT | -0.183
72 | CGGGGTGC | 0.0436
73 | AAACTGTC | -0.196
74 | ATCCCCTC | 0.0736
75 | CGTACGAA | -0.00421

Row | Sequence | PBM E-score
76 | CTTGTTAA | -0.179
77 | AACTGCCT | 0.0605
78 | AAACTGAC | -0.0759
79 | GATTTTCC | -0.186
80 | TCGGTCCA | -0.0643
81 | GTACTGTA | -0.151
82 | ATGGCGAC | -0.0878
83 | ACTAATAG | 0.144
84 | ACGAACTA | 0.135
85 | CTCTTCAA | -0.238
86 | CTACGGTA | 0.0486
87 | AAGCTCCG | -0.173
88 | AGCGAAGA | -0.163
89 | AAACACAG | 0.0633
90 | CCCGTTAC | -0.11
91 | TCGTCAAA | 0.0166
92 | ATGTTCTC | -0.0906
93 | CTACTTTC | -0.213
94 | AGCCGGGA | 0.0226
95 | ATGTCAGC | 0.072
96 | ACGGTTCT | -0.0909
97 | CGCGGCGA | 0.212
98 | AACGGACG | 0.0561
99 | AGAGTGAT | 0.0551
100 | CTTTAACA | -0.345

Row | Sequence | PBM E-score
101 | GTTAATTA | 0.0345
102 | ATTCAAAA | -0.0713
103 | TGATGCCA | -0.00527
104 | CGGTTGTA | -0.0495
105 | CGGCGAAC | -0.0382
106 | CCGCATTA | 0.0424
107 | ATACCCTC | 0.00336
108 | ATCGAGTA | 0.0544
109 | AGTTATGA | 0.0389
110 | CTTTGTGC | -0.135
111 | TCCACTCA | 0.0869
112 | GTGTGCGA | 0.0262
113 | CGGTCGAC | 0.0782
114 | GTTGAGGA | -0.0691
115 | AAAATAAA | -0.0137
116 | AAATATCA | 0.0762
117 | CCCGATAC | -0.126
118 | GTGCCAAA | -0.169
119 | AAGTTACC | -0.0533
120 | CCGGCCCA | -0.176
121 | CTACGAAC | -0.14
122 | ATACAGAT | 0.0906
123 | ACTAGTCA | 0.292
124 | CTCGCATA | 0.0425
125 | AAGGGTTG | -0.00859

Row | Sequence | PBM E-score
126 | ATGGTCTA | 0.0648
127 | CCAATAGG | 0.0241
128 | CTATTAGA | -0.0674
129 | GAAACGTC | -0.106
130 | TCTGAACA | 0.08
131 | TATTGAGA | 0.212
132 | CCTTTAAG | -0.184
133 | ACCGGCGG | 0.0503
134 | CTAGGTGC | -0.103
135 | CGGCCGAC | 0.00644
136 | ACAGAGAA | 0.0745
137 | ACTGGCGG | 0.0925
138 | GTAAGTCA | 0.251
139 | CGACCGGA | 0.0017
140 | GTGGAAGA | -0.12
141 | ACTTCCCA | -0.16
142 | GCATCAAC | 0.11
143 | AAAATTTA | -0.245
144 | CCTGTAAG | -0.201
145 | CGAAAAAG | -0.0396
146 | ACGCCCGA | -0.0585
147 | ACCAAAAG | -0.177
148 | AATGCAGC | -0.194
149 | GGGGCATA | -0.221
150 | CCGGATAG | -0.111

Row | Sequence | PBM E-score
151 | CCAGTAAA | -0.146
152 | AGTATTCA | 0.0385
153 | TCATCCCA | 0.171
154 | GACTCTAA | 0.243
155 | ACCGAGTG | 0.13
156 | TCATAAGA | -0.0578
157 | CGCGGTAC | 0.0942
158 | TACATCCA | 0.0343
159 | AGGCTGCG | 0.0726
160 | CCTGGGCC | -0.028
161 | TAATTTCA | -0.0403
162 | ACCAATGC | 0.142
163 | CCATCCGG | -0.00918
164 | CGATATAA | -0.117
165 | AGAATTGG | -0.0668
166 | CCGGAAAA | -0.17
167 | AATTTGGA | -0.28
168 | CAAAGTAA | 0.0679
169 | ACTTCAAA | -0.232
170 | ACCCTTCG | -0.0293
171 | AACGATTC | 0.0261
172 | ACTTTCGG | -0.195
